Source: the supplement of paper PMC4166925
± gives the standard deviation of the averaged measurements. Over roughly 33,000 sequences, “E-score (dimensionless, -0.5 to 0.5)” has its median near -0.046; the highest 2% begin near 0.36. This is one part of the list.

These sequences were tested on T1, SpTbr T-box DNA-binding domain (GST fusion) (assay: PBM E-score of 8-mer (E-score (dimensionless, -0.5 to 0.5)); Tbr is Tbrain of the sea star Patiria miniata (Pm) or the sea urchin Strongylocentrotus purpuratus (Sp); higher = stronger binding preference; most listed sequences are background and not binding sites). Conditions: the construct has about 5 more residues each side.
T1 sequence: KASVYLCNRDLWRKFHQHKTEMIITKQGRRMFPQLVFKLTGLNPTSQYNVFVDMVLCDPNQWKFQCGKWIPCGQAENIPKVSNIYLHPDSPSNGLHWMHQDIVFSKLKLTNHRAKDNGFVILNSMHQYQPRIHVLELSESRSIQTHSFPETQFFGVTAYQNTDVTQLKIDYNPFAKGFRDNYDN
Summary of the method: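 Expression of GST-fused Tbr T-box DNA-binding domains, each holding the full T-box plus roughly five flanking residues, was carried out in BL21 E. coli at 20 °C, with purification by glutathione affinity chromatography. Universal Agilent arrays made double-stranded by primer extension were incubated with the protein at 200 nM in PBS (pH 7.5), then scanned and quantified. All ungapped 8-mers were scored from probe intensities, and each received an enrichment E-score from the Universal PBM Analysis Suite, averaged over duplicate arrays.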

Row | Sequence | PBM E-score of 8-mer
1 | GAAATATA | 0.0158 ± 0.037
2 | CAAGAGAG | -0.276 ± 0.07
3 | CGCCTGTC | 0.269 ± 0.037
4 | CAGTCAGG | -0.283 ± 0.06
5 | TAGATACA | -0.248 ± 0.045
6 | AAGGCGTC | 0.372 ± 0.035
7 | AACCACAG | -0.022 ± 0.086
8 | GTCGAGGA | 0.0275 ± 0.01
9 | ACCATGCC | -0.133 ± 0.026
10 | CAGGCCGG | -0.118 ± 0.0059
11 | ACGAAATA | 0.0499 ± 0.031
12 | GCCGTACC | -0.226 ± 0.038
13 | CAGTCCGA | -0.0998 ± 0.02
14 | CCGTGGAG | 0.138 ± 0.0056
15 | CCTGCCCA | -0.0627 ± 0.0049
16 | CCCTCATC | -0.124 ± 0.061
17 | CATGCGAA | 0.0898 ± 0.0084
18 | CTGTAAAG | 0.141 ± 0.037
19 | CCTCGCAG | 0.128 ± 0.0015
20 | ACGCCAAT | 0.18 ± 0.011
21 | ATTGTGAG | 0.25 ± 0.035
22 | AATAGACG | -0.153 ± 0.17

Row | Sequence | PBM E-score of 8-mer
23 | TCATAAAA | -0.209 ± 0.12
24 | CCGCGGGC | -0.0365 ± 0.035
25 | CTAAATGA | -0.105 ± 0.0079
26 | AAGCCCTC | -0.287 ± 0.02
27 | AAAGTGGT | 0.00031 ± 0.043
28 | ACACATAC | 0.274 ± 0.0089
29 | ATCAAGCC | -0.0713 ± 0.049
30 | ATCTCTGA | -0.279 ± 0.01
31 | CCTAACCG | -0.163 ± 0.039
32 | CAAAACGG | -0.14 ± 0.012
33 | GCTCTTCC | -0.168 ± 0.034
34 | AAACCGAC | 0.0439 ± 0.026
35 | ACTTGAAG | 0.027 ± 0.02
36 | ATTCATCG | 0.0084 ± 0.064
37 | CGTGCCGC | 0.0419 ± 0.045
38 | ACACTGAG | 0.125 ± 0.011
39 | CAGAAACA | -0.0863 ± 0.084
40 | GCAAACTA | -0.0056 ± 0.022
41 | AATCCGAT | -0.194 ± 0.02
42 | GGACTGAA | -0.107 ± 0.024
43 | CCAGTGTC | 0.0479 ± 0.008
44 | AGCGGTTC | -0.0379 ± 0.0027

Row | Sequence | PBM E-score of 8-mer
45 | ACACCTAA | 0.4637 ± 0.0015
46 | ACGGAATG | -0.0727 ± 0.079
47 | ACAGATGA | -0.0178 ± 0.031
48 | AACACCCT | 0.4 ± 0.0049
49 | ACGGGGAA | -0.205 ± 0.012
50 | AAACCAGA | -0.128 ± 0.093
51 | AGCGATGC | -0.177 ± 0.048
52 | GCGTGGCC | 0.0846 ± 0.069
53 | ATTGGTAA | -0.218 ± 0.016
54 | AGAATCAT | -0.0611 ± 0.044
55 | CTCGAGCA | -0.0926 ± 0.029
56 | CGGCCTTA | -0.139 ± 0.025
57 | ACAAGTGC | 0.281 ± 0.015
58 | CTTCATCC | -0.148 ± 0.0056
59 | TTAATCAA | -0.0414 ± 0.051
60 | GTACTATA | -0.112 ± 0.079
61 | CCGAGACC | -0.241 ± 0.13
62 | CAGGAAAC | -0.0905 ± 0.009
63 | AACTTACG | -0.0812 ± 0.018
64 | AAGTTGAC | 0.187 ± 0.02
65 | CATCACCC | 0.258 ± 0.022
66 | GGAGCAAC | 0.0231 ± 0.049

Row | Sequence | PBM E-score of 8-mer
67 | ACAGCGCT | 0.0204 ± 0.069
68 | CAAAAGCA | -0.12 ± 0.073
69 | GTGAAAAC | 0.337 ± 0.056
70 | AGCGAAGC | -0.0769 ± 0.11
71 | GGGAAACC | -0.113 ± 0.069
72 | AAATCCGG | -0.116 ± 0.074
73 | GAACCGAA | -0.101 ± 0.0094
74 | AGGTAAAT | -0.154 ± 0.027
75 | CGGGGCTC | -0.0908 ± 0.071
76 | GGTGATAA | 0.37553 ± 0.00031
77 | CTAAACAA | 0.00197 ± 0.031
78 | ATCCCCCG | -0.0799 ± 0.04
79 | ACCAACCT | 0.0223 ± 0.055
80 | CGAGGGGA | -0.0885 ± 0.018
81 | CGTTAATC | 0.117 ± 0.0075
82 | GCTATTAC | 0.0126 ± 0.066
83 | GGGAATAC | -0.219 ± 0.055
84 | GGATGCCA | -0.117 ± 0.05
85 | GGTCAGTA | -0.255 ± 0.048
86 | ACAGTCTA | -0.06 ± 0.06
87 | CCACTTGA | 0.109 ± 0.013
88 | TAGCACTA | 0.252 ± 0.095

Row | Sequence | PBM E-score of 8-mer
89 | TGCGGAAA | 0.0644 ± 0.12
90 | CACTAGAG | 0.00017 ± 0.027
91 | AGTCGCGG | 0.0304 ± 0.054
92 | ACGTTACA | -0.0641 ± 0.0049
93 | AACAGCGG | -0.0191 ± 0.046
94 | TCTCGAAA | -0.0659 ± 0.035
95 | CGGGCTAG | -0.199 ± 0.017
96 | GGTGGAAC | -0.00193 ± 0.025
97 | AAATTGTC | 0.0694 ± 0.077
98 | AAGTCCCG | -0.114 ± 0.021
99 | ACGAGAAA | -0.0381 ± 0.012
100 | AGCTTTGC | 0.0173 ± 0.0045
101 | AAGTTAAT | -0.0442 ± 0.027
102 | ACATATCC | -0.0962 ± 0.058
103 | GAGCCTCC | -0.253 ± 0.064
104 | TAGATGCA | -0.264 ± 0.024
105 | ACTGTTCC | -0.049 ± 0.031
106 | CCCTTCCA | -0.0582 ± 0.031
107 | GATTGAAC | -0.131 ± 0.0084
108 | ACGATATC | 0.13 ± 0.023
109 | ACCCAACT | -0.0208 ± 0.073
